From PubChem BioAssay (NCI)
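These data come from cells grown in 96-well plates and exposed to compound for 48 hours at five concentrations. Abbreviation: GI50, concentration required for 50% inhibition of growth. TGI: concentration producing complete growth inhibition.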 Numbered stars: 1 amine (or outer) side, 2 acyl side, 3 side chain; on linkers, the order of the positions; unused ones are H or OH. Bridge positions count the residues as written; N and C are the ends. Square brackets hold non-standard residues; d marks the D form. Peptide text beside a SMILES is read from it. * marks the point of attachment. Phe(3,5-F2) = N[C@@H](Cc1cc(F)cc(F)c1)C(=O)O; Pro(4R-Me) = C[C@H]1CN[C@H](C(=O)O)C1; aThr = C[C@H](O)[C@H](N)C(=O)O; NMeAc5c = CNC1(C(=O)O)CCCC1; Pip = O=C(O)[C@@H]1CCCCN1; X8 = Fc1cc(C2CC2)ccc1N*; Boc = CC(C)(C)OC(=O)*; CO = O=C([*:1])[*:2]; OBn = c1ccc(CO*)cc1

Tested on: NCI-H322M lung
Assay: inhibition of tumour cell growth, NCI panel, 48 h

Row | Compound | GI50 [µM] | TGI [µM]
1 | C[C@@H]1C[C@H]2C(=O)O[C@@H](C)[C@H](NC(=O)[C@H](Cc3cc(F)cc(F)c3)NC(=O)Nc3ccc(C4CC4)cc3F)C(=O)N3CCC[C@H]3C(=O)N3CCCC[C@H]3C(=O)N[C@@H](C)C(=O)N2C1 ({X8-CO}-[Phe(3,5-F2)][aThr]P[Pip]A[Pro(4R-Me)]; ester 2-C) | 0.149 | 13.4
2 | CN1C(=O)C2CCC(=O)N2c2cccnc21 (stereo not given) | – | > 100
3 | COC(=O)C([C@H](NC1(c2ccccc2)c2ccccc2-c2ccccc21)C(=O)OC)N(NC(=O)OCc1ccccc1)C(=O)OCc1ccccc1 (mixture of isomers) | – | > 100
4 | CCOC(=O)C(C)(C)Oc1ccc2c(-c3ccccc3)cc(=O)oc2c1 | – | > 100
5 | C[C@@H](NC(=O)[C@@H]1C[C@]1(C)COC(=O)c1cc([N+](=O)[O-])cc([N+](=O)[O-])c1)c1cccc2ccccc12 | – | > 100
6 | C1=C2/CC[C@H](Sc3ccccc3)C2C2(CCCCC/1)OCCO2 (stereo not given in full) | – | > 100
7 | Cc1ccc(-c2n[nH]c(=O)n2N2C(=O)c3ccccc3C2=O)cc1 | – | > 100
8 | C=C(C)C(OC)C(O)CC1(C)CC(O)CC(C)(C2CCC3OC(C4(C)CCC(Br)C(C)(C)O4)CCC3(C)O2)O1 (stereo not given) | 15.1 | 33.2
9 | CC(=O)OC1CC(OC2C(O)CC(OC3C(O)CC(OC4CCC5(C)C(CCC6C5CC(O)C5(C)C(C7=CC(=O)OC7)CCC65O)C4)OC3C)OC2C)OC(C)C1OC1OC(CO)C(O)C(O)C1O (stereo not given) | – | 0.363
10 | CCN(CC)N=Nc1c(C(N)=O)n[nH]c1C | – | > 100
11 | C[N+](C)(C)CC(=O)N/N=C(/CC(=O)CC(C1=C(O)c2ccccc2OC1)c1ccccc1)C(=O)Nc1cccc(Cl)c1 (stereo not given) | – | > 100
12 | C=CCOc1ccc2c(C)cc(=O)oc2c1C | – | > 100
13 | OC1CSSC1Cn1cnc2c(Nc3ccc(OCc4cccc(F)c4)c(Cl)c3)ncnc21 (stereo not given) | 1.5 | 6.78
14 | NC(=O)NO.O.O.O.O.O.O.O.O.O.O.O.[Ge].[Ge].[Ge].[Ge].[Ge].[O]=[Ge].[O]=[Ge].[O]=[Ge].[O]=[Ge].[O]=[Ge][OH] | – | > 100
15 | CC(C)CCS(=O)(=O)OCCCCOS(=O)(=O)CCC(C)C | – | > 100
16 | CC(=O)NC(Cc1ccc(O)cc1)C(=O)O (stereo not given) | – | > 100
17 | O=C(Nc1ccc(F)cc1)Nc1ccc(Cl)c([N+](=O)[O-])c1 | 3.31 | 12.1
18 | O=C(Nc1ccc(-n2ccc3c(NC(=O)c4ccccc4)nccc32)cc1)c1ccc(Cl)c(C(F)(F)F)c1 | 6.88 | > 30.5
19 | O=C1C=CC(=O)c2c1ccc1c3ccccc3n(CCCCCCCCCCCCn3c4ccccc4c4ccc5c(c43)C(=O)C=CC5=O)c21 | – | > 100
20 | COC([CH2][Hg][n]1cnc2c1c(=O)n(C)c(=O)n2C)CN1C(=O)c2ccccc2S1(=O)=O (stereo not given) | > 100 | > 100
21 | NC(N)=NS(=O)(=O)c1ccc(Nc2c3ccccc3nc3c(C(=O)NCCO)cccc23)cc1 | 18.5 | –
22 | Cc1cc(NS(=O)(=O)c2ccc(Nc3c4ccccc4nc4c(C(=O)N5CCN(CCOS(C)(=O)=O)CC5)cccc34)cc2)no1 | – | > 100
23 | Fc1[nH]nc2ccc([C@@H]3Nc4ccc5[nH]ncc5c4[C@H]4C5CCC(C5)[C@@H]34)cc12 (stereo not given in full) | 4.93 | 17.3
24 | COc1ccc2cc(NC(=O)N/N=C\c3ccc([N+](=O)[O-])cc3)ccc2c1 | – | > 100

Row | Compound | GI50 [µM] | TGI [µM]
25 | COC(=O)C1SC(SC)=NC12c1ccccc1Nc1ccccc12 (stereo not given) | – | > 100
26 | CC(=O)O[C@@H]1[C@H](C(C)C)[C@@H](OC(C)=O)C/C(C)=C/CC[C@]2(C)O[C@@H]12 | – | > 100
27 | O=C1/C(=C/c2ccccc2)N=C2Sc3c(nc[nH]c3=O)N12 | – | > 100
28 | Nn1c(-c2ccccc2)nn(C(=O)c2ccccc2)c1=O | – | > 100
29 | CCCC1C(=O)CCc2c(OC)ccc(OC)c21 (stereo not given) | – | > 100
30 | NC(N)=N/N=C/c1c(-c2ccc(N)cc2)nc2sccn12 | – | 46.4
31 | c1csc(-c2ccc(-c3cccc4nsnc34)s2)c1 | – | > 100
32 | Cc1ccc(C(=O)O)cc1S(=O)(=O)Nn1cnc2ccc(S(=O)(=O)Nc3ccccc3C(=O)O)cc2c1=O | – | > 100
33 | OCc1cc2ccccc2c2c3c(ccc12)OCO3 | 40.3 | 208
34 | CC(C)=CCc1c2c(c3occ(-c4ccc(O)cc4)c(=O)c3c1O)CC(C(C)(C)O)O2 (stereo not given) | – | 19.6
35 | Nc1c(C(=O)c2cccc(CCS(N)(=O)=O)c2)cnn1-c1ccc(F)cc1 | > 25 | > 25
36 | O=[N+]([O-])c1ccc2c(c1)/C(=N/N=C1c3ccccc3Cc3ccccc31)c1cc([N+](=O)[O-])cc([N+](=O)[O-])c1-2 | – | 7.95
37 | C1CN(c2nc3c(nnc4nc(N5CCOCC5)sc43)s2)CCO1 | – | > 100
38 | O=C(N/N=C(/COc1ccc(Cl)cc1)N=Cc1ccncc1)c1ccncc1 | – | > 100
39 | FC(F)(F)c1cccc(Nc2nc(-c3ccccc3)nc3ncccc23)c1 | 12.1 | 40.7
40 | COc1cccc(-c2cc(-c3cccc(NS(C)(=O)=O)c3)nc(N)c2C#N)c1O | 0.433 | > 100
41 | Cc1nc2n(c1/C=C1/C(=O)Nc3cccc(Cl)c31)CCS2 | – | > 100
42 | CC1(C(=O)O)CCC[C@@]2(C)C1CC[C@@]1(C)c3cocc3CCC21 (stereo not given in full) | – | > 100
43 | COc1ccc(C2CC(c3c(O)ccc4ccccc34)=NN2C(C)=O)cc1OC (stereo not given) | – | > 100
44 | C=CC1(C)CCC2C(=CCC3C2(C)CC(O)C(O)C3(C)COC2OC(C(=O)O)C(O)C(O)C2O)C1 (stereo not given) (tested in a mixture with another compound) | – | > 100
45 | Nc1nc(SCCc2ccccc2)c2[nH]cnc2n1 | – | > 100
46 | COc1ccc(COCCOCc2nc(C#N)c(N)o2)cc1 | – | > 100
47 | CCOC(=O)C1(C/C=C/CBr)Cc2ccccc2C1=O (stereo not given) | – | 30.8
48 | CCCCCCCCCCCCCCNC(=O)CCC(NC(=O)c1ccc(N(C)Cc2cnc3nc(N)nc(N)c3n2)cc1)C(=O)NCCCCCCCCCCCCCC (stereo not given) | – | 68.1

Row | Compound | GI50 [µM] | TGI [µM]
49 | Cc1ccsc1C(=S)Nc1ccc(Cl)c(/C=N/OC(C)(C)C)c1 | – | > 100
50 | C#CCNC(CS)C(=O)O (stereo not given) | – | > 100
51 | COc1ccc2c(c1)sc1nc(-c3ccccc3)c(-c3cccc4ccccc34)n12 | > 22.7 | > 100
52 | O=C1NC(=NCCc2cccc(F)c2)S/C1=C\c1ccc2ncccc2c1 | > 23.7 | > 25
53 | CO/C(=N\N=C\c1ccc(C(F)(F)F)cc1)c1ccncc1 | – | > 10
54 | COc1ccc(-c2cc(O)c3nc4ccccc4n3c2)cc1 | – | > 100
55 | O=c1[nH]c(Nc2cccc(CC(F)(F)F)c2)nc2nc[nH]c12 | – | > 100
56 | CCC(C(=O)O)c1ccc(OC)cc1 (stereo not given) | – | > 100
57 | C=CCO[C@H]1CO[C@H]2[C@@H]1OC[C@@H]2Oc1ccc(Nc2ccnc(Nc3ccc(O[C@H]4CO[C@H]5[C@@H]4OC[C@@H]5OCC=C)c(Cl)c3)n2)cc1Cl | 1.58 | 2.96
58 | CCCCCCCCCCCC(=O)OCCOCCOCCOCCOCCOCc1ccccc1 | – | > 100
59 | COC(=O)c1cc(=O)nc2sc3cccc(C)c3n12 | – | > 100
60 | CN(C)C(=S)N=C(Nc1ccccc1)Nc1ccccc1 | – | > 100
61 | S=C1Nc2ccccc2SC1c1ccccc1 (stereo not given) | – | > 100
62 | COc1cc2ccnc([C@@H](OC(=O)c3ccccc3)c3ccc(OC)c(OC)c3OC)c2cc1OC | – | > 100
63 | CC1(C)N=[N+]([O-])C1(C)C | – | > 100
64 | ClCCN1CCC2(CC1)SSC1(CCN(CCCl)CC1)S2 | – | > 100
65 | COC(=O)C1(C(C)C)CCc2c(OC)ccc(OC)c2C1=O (stereo not given) | – | > 100
66 | Clc1ccccc1C(SCc1ccccc1)SCc1ccccc1 | – | > 100
67 | CCn1c(C)nn2c(=O)c3ccccc3nc2c1=O | – | > 100
68 | O=c1ccc(-c2ccccc2)n[nH]1 | – | > 100
69 | Cc1ccc(Cl)c2c(N=Nc3ccccc3[N+](=O)[O-])c(O)[nH]c12 | – | > 100
70 | Cc1cnc(NCCCN(C)C)c2c1[nH]c1ccc3cc(O)ccc3c12 | – | 2.8
71 | CC[C@@H]1CC[C@@H]2[C@H](CC[C@]3(C)[C@@H](OC(C)=O)CC[C@@H]23)[C@H]1COC(C)=O | – | > 100
72 | O=C(CCc1nc(=S)[nH][nH]1)Nc1ccc(Cl)c(Cl)c1 | – | > 100

Row | Compound | GI50 [µM] | TGI [µM]
73 | O=C1CCCSC(=O)N1Cc1ccccc1 | – | > 100
74 | CN(C)C(=O)O/N=C1/C(c2c(O)[nH]c3ccccc23)=Nc2ccccc21 | – | 58.8
75 | OCC1=CC(NC2CC(CO)C(O)C(O)C2O)C(O)C(O)C1O (stereo not given) | – | > 100
76 | COC(=O)c1c(C)cccc1C1CN=NC12Cc1ccc(C)cc1C2=O (stereo not given) | – | > 100
77 | CC(C)(C)OC(=O)NCCCCC1NC(=O)[C@@H]2Cc3c([nH]c4ccccc34)C(C3CCCCC3)N2C1=O (stereo not given in full) | – | > 100
78 | Cc1ccc(Cl)c2[nH]c(-c3ccccc3)cc(=O)c12 | – | > 100
79 | CC1(C)C(=O)/C=C\C(=O)C(C)(C)C2=CC=C(O2)C(C)(C)C(=O)/C=C\C(=O)C(C)(C)C2=CC=C1O2 | – | > 100
80 | CNS(=O)(=O)NNS(=O)(=O)c1ccccc1 | – | > 100
81 | CCOC(=O)C(SCCO)C(C(=O)OCC)n1cnc2c(=O)[nH]c(NC(C)=O)nc21 (stereo not given) | – | > 100
82 | O=C(CC(=O)c1cccc2ccccc12)C(=O)Nc1ccc(Cl)cc1 | – | > 100
83 | N#CC1(C#N)N[C@@H](c2ccsc2)[C@H]2C(=O)N(c3ccccc3)C(=O)[C@H]21 | – | > 100
84 | CC(=O)OC1OC([C@@H]2c3cccc(O)c3C(=O)c3c(O)cc(C)cc32)C(O)C(O)C1O (stereo not given in full) | < 0.0202 | 0.31
85 | CCC[CH2][Sn]([CH2]CCC)([S]c1cccc2cccnc12)[S]c1cccc2cccnc12 | 0.218 | 0.474
86 | CCCCCCc1cc2cc(-c3csc(CC#N)n3)c(=O)oc2cc1O | – | > 100
87 | COc1cc2c(cc1OCCCCN1CCN(CC(=O)Nc3ccc(Cl)cc3C(=O)c3ccccc3Cl)CC1)N=CC1CCCN1C2=O (stereo not given) | 0.433 | 0.972
88 | CCOC(=O)/C=C/CC(C)(C)CCOC(C)=O | – | > 10
89 | NC(=O)NCCCC(NC(=O)OCCCCn1ccc(=O)[nH]c1=O)C(=O)O (stereo not given) | – | > 100
90 | COc1ccc(N/N=C2\CCOc3ccc(C)cc3C2=O)cc1 | – | > 100
91 | CCC(=O)[C@H](C)[C@@H](OC(=O)[C@H](C)CC)[C@H](C)[C@H]1OC(CC)=C(C)C(=O)[C@@H]1C | 31 | > 100
92 | CN(C)c1ccc(/C=C\C2=[N+](C)c3ccccc3C2(C)C)cc1 | 2.16 | 29.3
93 | Cc1cc(Cc2cc(C)c(N)cc2N)c(N)cc1N | – | > 100
94 | Cc1c(O)c(O)cc[n+]1C1OC(CO)C(O)C1O (stereo not given) | – | > 100
95 | CCCCC#C[I+]c1ccccc1 | – | 29.9
96 | CN(C(=O)C(Cc1ccccc1)NC(=O)OC(C)(C)C)C1(C(=O)NC(Cc2ccccc2)C(=O)OCc2ccccc2)CCCC1 (stereo not drawn) (Boc-Phe-[NMeAc5c]-Phe-OBn; configuration not given here) | – | > 100
